According to PubChem BioAssay AID504332 (National Center for Advancing Translational Sciences (NCATS), 2011):
The campaign covered roughly 350,000 compounds. About 31,000 (8.9%) were called active. Inconclusive means that the source gave no clear call. Such entries were picked first, then a sample of the others. Calls come from the whole dose curve; as a rule, active = well fitted inhibition curve with a large enough effect; inconclusive = small, poorly fitted or top-dose-only effect; inactive = no such curve, though single readings can be large or run the other way. Potencies of inconclusive entries are doubtful fits and often do not repeat.

What follows are compounds tested against Histone-lysine N-methyltransferase EHMT2 (Homo sapiens) (UniProt Q96KQ7) (assay: qHTS Assay for Inhibitors of Histone Lysine Methyltransferase G9a). Settings: G9a H3K9 monomethylation, AlphaScreen, 2 h; activity, negative = inhibition: at 59 µM (top of the series) unless noted.
Sequence of UniProt Q96KQ7 (Q96KQ7 whole entry, looked up): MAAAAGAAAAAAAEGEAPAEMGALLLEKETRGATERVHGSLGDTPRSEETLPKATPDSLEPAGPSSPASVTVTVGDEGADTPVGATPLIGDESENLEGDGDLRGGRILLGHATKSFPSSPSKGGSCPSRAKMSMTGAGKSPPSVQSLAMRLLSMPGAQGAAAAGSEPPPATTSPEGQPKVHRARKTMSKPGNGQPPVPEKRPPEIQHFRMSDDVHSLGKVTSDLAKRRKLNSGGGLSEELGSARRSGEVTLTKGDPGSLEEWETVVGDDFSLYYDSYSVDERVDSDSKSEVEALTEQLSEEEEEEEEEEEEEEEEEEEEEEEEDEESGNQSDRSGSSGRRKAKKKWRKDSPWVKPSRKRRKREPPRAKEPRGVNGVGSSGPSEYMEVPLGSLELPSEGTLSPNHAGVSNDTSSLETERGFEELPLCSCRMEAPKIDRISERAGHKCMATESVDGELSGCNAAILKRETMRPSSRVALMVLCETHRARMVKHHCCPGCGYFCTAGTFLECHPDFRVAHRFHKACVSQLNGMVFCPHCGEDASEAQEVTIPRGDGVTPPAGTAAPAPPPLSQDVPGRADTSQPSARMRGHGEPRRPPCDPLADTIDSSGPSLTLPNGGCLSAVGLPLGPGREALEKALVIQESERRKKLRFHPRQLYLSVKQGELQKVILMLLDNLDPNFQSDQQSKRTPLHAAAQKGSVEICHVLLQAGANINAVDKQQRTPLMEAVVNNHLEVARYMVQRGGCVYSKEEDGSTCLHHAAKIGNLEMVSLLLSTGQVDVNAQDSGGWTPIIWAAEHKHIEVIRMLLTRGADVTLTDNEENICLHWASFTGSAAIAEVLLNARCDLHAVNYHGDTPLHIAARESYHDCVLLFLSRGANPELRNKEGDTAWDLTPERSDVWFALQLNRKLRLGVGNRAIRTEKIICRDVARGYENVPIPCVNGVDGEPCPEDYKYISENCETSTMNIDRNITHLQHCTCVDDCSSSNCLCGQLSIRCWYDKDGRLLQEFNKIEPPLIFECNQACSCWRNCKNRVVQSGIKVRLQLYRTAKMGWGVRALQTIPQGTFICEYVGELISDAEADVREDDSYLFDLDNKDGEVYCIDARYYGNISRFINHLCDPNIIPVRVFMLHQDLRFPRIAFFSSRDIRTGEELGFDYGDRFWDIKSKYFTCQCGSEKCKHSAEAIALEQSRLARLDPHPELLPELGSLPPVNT
How it was run: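 AlphaScreen read-out: biotin-H3K9 peptide (500 nM) methylation by 20 nM enzyme with 20 uM SAM, 2 h at room temperature after 15 min compound preincubation; anti-monomethyl H3K9 antibody plus donor/acceptor beads, 10 min dark.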
% is set by controls: 0 for no effect and ±100 for the full control effect; potency is the fitted concentration of half-maximal effect; tags give direction and shape of the fitted curve.
Note: nearly all actives have a fitted effect of over 75% in size.

| SMILES | Potency | activity, negative = inhibition |
| --- | --- | --- |
| Cc1ccc(NC(=O)C2CCCN(S(=O)(=O)c3c(C)n[nH]c3C)C2)cc1C (stereo not drawn) | inactive | – |
| CCC1CCCCN1C(=O)COc1cc(=O)n(C)c2ccccc12 (stereo not drawn) | inactive | – |
| CSc1cccc(NC(=O)C2CCN(S(=O)(=O)c3ccc4[nH]c5c(c4c3)CCCCC5)CC2)c1 | inactive | – |
| CCOC(=O)Cc1csc(NC(=O)c2cc(C)c(C)s2)n1 | – | inactive: 13.2% [at 12.7 µM] |
| COc1cc(NC(=O)c2cc(-c3ccccc3)on2)cc(OC)c1OC | inconclusive: 89.1 µM [inhibitor, single point] | – |
| CCC(=O)N1N=C(c2c(-c3ccccc3)c3cc(Cl)ccc3[nH]c2=O)CC1c1ccco1 (stereo not drawn) | inconclusive: 70.8 µM [inhibitor, single point] | – |
| Cc1ccc(N=Nc2c(O)ccc3n[nH]nc23)cc1 | – | inconclusive: -95.1% [inhibitor] [at 2.33 µM] |
| COc1ccccc1NC(=O)CN1CC(=O)Nc2ccccc21 | active: 20 µM | – |
| CC1CN(CC(O)COC2CCC(C(C)(C)C)CC2)CC(C)O1 (stereo not drawn) | inconclusive: 89.1 µM [inhibitor, partial curve, poor fit] | – |
| COc1ccc(S(=O)(=O)N(CCc2ccccc2)CC(=O)O)cc1Cl | – | inactive: 6.93% [at 12.7 µM] |
| COc1ccc2c(c1)CC(C(=O)NCCN1CCN(c3cccc(C)c3C)CC1)CO2 (stereo not drawn) | inactive | – |
| CC(=O)Nc1ccc(NC(=O)C2CCN(S(=O)(=O)c3ccc4c(c3)OCCO4)CC2)cc1 | active: 17.8 µM | – |
| CCOC(=O)C1=C(C)C/C(=N\NC(=O)c2ccccc2O)CC1 | inconclusive: 89.1 µM [inhibitor, single point] | – |
| O=c1c2ccccc2sc2nc(C3CCCCC3)n(Cc3ccco3)c(=O)c12 | inconclusive: 2.82 µM [inhibitor, partial curve, poor fit] | – |
| Cc1cc(OCCCCn2ccnc2)cc(C)c1Cl | active: 8.91 µM | – |
| O=C1c2ccncc2C(=O)N1CNc1ccc(Cl)cc1 | inconclusive: 31.6 µM [inhibitor, partial curve, poor fit] | – |
| Oc1[nH]c2ccccc2c1C=Nc1ccc2c(c1)OCO2 | – | inconclusive: -74.4% [inhibitor] |
| CS(=O)(=O)c1ccc(Cl)c(NC(=O)CSc2nnc(-c3cccs3)n2N)c1 | – | inactive: -7.14% [at 2.33 µM] |
| CC(=O)NC(Cc1c[nH]c2ccccc12)C(=O)OCC(=O)N1CCCCCC1 (stereo not drawn) | inactive | – |
| CCn1cc2nc(SCc3ccc(F)cc3)n(Cc3ccc(Cl)cc3)c(=O)c2n1 | inactive | – |
| CC(=O)OC[C@H]1O[C@H](C/C=N/O[C@@H](C)c2cn([C@H](CO)Cc3ccccc3)nn2)C=C[C@@H]1OC(C)=O | inconclusive: 79.4 µM [inhibitor, single point] | – |
| S=C(c1ccccc1)N1CCN(C(=S)c2ccccc2)CC1 | inconclusive: 28.2 µM [inhibitor, single point] | – |
| O=C(CSc1nc(-c2ccc(F)cc2)nc2c1Cc1ccccc1O2)Nc1ccc(C(=O)O)cc1 | inconclusive: 8.91 µM [inhibitor, partial curve, poor fit] | – |

| SMILES | Potency | activity, negative = inhibition |
| --- | --- | --- |
| O=C1Nc2cc(C(=O)N3CCN(c4ccccc4F)CC3)ccc2NC1CSCc1ccccc1F (stereo not drawn) | inconclusive: 7.94 µM [inhibitor, full curve, poor fit] | – |
| CCOC(=O)c1c(S(=O)(=O)NCC(=O)N2CCN(c3cccc(OC)c3)CC2)c(C)n(C)c1C | inactive | – |
| O=C(O)c1ccc2ncsc2c1 | inconclusive: 25.1 µM [inhibitor, single point] | – |
| Cc1c(C(=O)N2CCC(C(N)=O)CC2)sc(N)c1C#N | – | inconclusive: -53.6% [inhibitor] |
| COc1cccc(N2CCN(C(=O)c3cc4c(=O)n(Cc5ccco5)ccc4nc3C)CC2)c1 | inconclusive: 31.6 µM [inhibitor, single point] | – |
| O=C(NCc1ccccc1Cl)c1ccc(NC(=O)N2CCSc3ncccc32)cc1 | inactive | – |
| CC(C)=NNC(=O)CN1C(=O)NC2NC(=O)NC21 (stereo not drawn) | active: 79.4 µM | – |
| CSc1ccc(C2N=C(c3ccccc3)NO2)cc1 (stereo not drawn) | inconclusive: 89.1 µM [inhibitor, single point] | – |
| O=C(Cc1ccc(S(=O)(=O)N2CCOCC2)s1)Nc1ccc(N2CCOCC2)cc1 | inconclusive: 50.1 µM [inhibitor, partial curve, poor fit] | – |
| COc1ccc(C(C#N)(CCC#N)CCC#N)cc1OC | – | inconclusive: -56.1% [inhibitor] |
| CC1CCCCN1CCCn1c(=S)[nH]c2ccccc2c1=O (stereo not drawn) | inconclusive: 39.8 µM [inhibitor, partial curve] | – |
| O=C(CSCc1n[nH]c(=O)[nH]1)NCCOc1cccc(Oc2ccccc2)c1 | – | inconclusive: -68.4% [inhibitor] |
| O=C(NCc1ccc2c(c1)CCN2C(=O)c1ccccc1)c1ccco1 | inactive | – |
| O=C(Nc1ccc(S(=O)(=O)N(Cc2ccccc2)c2ccccc2)cc1)c1ccc([N+](=O)[O-])cc1 | inconclusive: 7.94 µM [inhibitor, partial curve, poor fit] | – |
| COCCn1c(SCC(=O)Nc2ccc(C(F)(F)F)cc2)nc2c([nH]c3ccccc32)c1=O | inactive | – |
| CC(C)c1ccc(NC(=O)C2=CC=CN3CCS(=O)(=O)N=C23)cc1 | inconclusive: 89.1 µM [inhibitor, partial curve, poor fit] | – |
| Clc1nc(Oc2ccccc2)nc(-c2cn(-c3ccccc3)c3ccccc23)n1 | active: 39.8 µM | – |
| COc1ccccc1-c1nnc(SCC(=O)Nc2ccc(N3CCOCC3)cc2)n1C | inconclusive: 11.2 µM [inhibitor, partial curve] | – |
| Cn1c(NC(=O)c2ccc(Cl)cc2)c(-c2ccccn2)c(=O)c2ccccc21 | inconclusive: 5.01 µM [inhibitor, partial curve, poor fit] | – |
| O=C(COC(=O)[C@H](Cc1ccccc1)N1C(=O)c2ccccc2C1=O)Nc1ccc2c(c1)OCO2 | inconclusive: 70.8 µM [inhibitor, single point] | – |
| O=C(NCC(=O)N1CCCCCC1)c1ccc(Cl)cc1 | inactive | – |
| CCOn1c(=O)c(-c2ccc(Cl)cc2)[n+]([O-])c2ccccc21 | inactive | – |
| CCc1ccc(NS(=O)(=O)c2ccc3[nH]cc(C(=O)N4CCCCC4)c(=O)c3c2)cc1 | – | inconclusive: -64% [inhibitor] |

| SMILES | Potency | activity, negative = inhibition |
| --- | --- | --- |
| COc1c(F)c(F)c(C(=O)O)c(Nc2cccc(C)c2)c1F | inconclusive: 50.1 µM [inhibitor, partial curve] | – |
| CC(=O)c1c(C)[nH]c(C(=O)CSc2nc3ccc(C)cc3[nH]2)c1C | – | inconclusive: -125% [inhibitor] |
| Cc1cc(C)c(NC(=S)N(Cc2cccnc2)Cc2ccco2)c(C)c1 | inconclusive: 79.4 µM [inhibitor, single point] | – |
| CN1CCN(C(=O)C(Cc2ccccc2)NS(=O)(=O)c2ccc3c(c2)CCC(=O)N3)CC1 (stereo not drawn) | inconclusive: 89.1 µM [inhibitor, partial curve, poor fit] | – |
| COc1ccc(Nc2nc(CC(C)=O)ns2)cc1 | inconclusive: 35.5 µM [inhibitor, single point] | – |
| Clc1ccc2[nH]c3c(c2c1)CNCC3 | inconclusive: 89.1 µM [inhibitor, single point] | – |
| CCc1ccc(CNC(=O)CCCC(=O)n2nc(C)c3ccccc32)cc1 | inconclusive: 1.78 µM [inhibitor, partial curve, poor fit] | – |
| O=C(CC1OC(=O)c2ccccc21)Nc1cccc(S(=O)(=O)N2CCCCCC2)c1 (stereo not drawn) | inconclusive: 50.1 µM [inhibitor, partial curve, poor fit] | – |
| CC(=O)Nc1cccc(-c2csc(N)n2)c1 | inconclusive: 56.2 µM [inhibitor, partial curve, poor fit] | – |
| Cc1ccc(C)c(N2CCN(CCCNC(=O)c3nnc(Cc4ccc(F)cc4Cl)o3)CC2)c1 | inconclusive: 10 µM [inhibitor, partial curve, poor fit] | – |
| CC1CCCN(C2=C(NS(=O)(=O)c3ccc(Br)cc3)C(=O)c3ccccc3C2=O)C1 (stereo not drawn) | inconclusive: 2.51 µM [inhibitor, partial curve, poor fit] | – |
| CCCN(CCC)CCNC(=O)C1CCCN(S(=O)(=O)c2cccc3nsnc23)C1 (stereo not drawn) | inactive | – |
| CCOC(=O)c1cc(S(=O)(=O)N2CCN(c3ccc(F)cc3)CC2)[nH]n1 | active: 28.2 µM | – |
| COc1ccc(N2CCN(C(=O)CSc3nnc4c(C)cc5c(C)cc(C)cc5n34)CC2)cc1 | inconclusive: 8.91 µM [inhibitor, partial curve, poor fit] | – |
| CCC(C)n1c(=S)[nH]c2c(sc3ccc([N+](=O)[O-])cc32)c1=O (stereo not drawn) | inconclusive: 22.4 µM [inhibitor, single point] | – |
| O=C(c1ccc2c(c1)OCCO2)N1CCN(S(=O)(=O)c2c(F)cccc2F)CC1 | – | inactive: 11.6% [at 2.33 µM] |
| Cc1ccc(S(=O)(=O)N2CCCC2C(=O)OCc2nc3ccccc3s2)cc1 (stereo not drawn) | inconclusive: 0.708 µM [inhibitor, full curve, poor fit] | – |
| CCOc1ccc(-n2c(N)c(C(=O)NCc3cccnc3)sc2=S)cc1 | – | inconclusive: -52.4% [inhibitor] |
| O=C(C1CCCN(Cc2ccccc2F)C1)N1CCCC1 (stereo not drawn) | active: 39.8 µM | – |
| Clc1ccccc1N=C1NN=C(c2cccs2)CS1 | active: 89.1 µM | – |
| Cc1onc(-c2ccccc2)c1C(=O)NC1C(=O)N2C(C(=O)O)C(C)(C)S[C@@H]12 (stereo partly drawn) | – | inactive: 3.97% [at 2.33 µM] |
| O=C(Oc1ccc(-c2cnc3ccccc3n2)cc1)c1ccco1 | inconclusive: 35.5 µM [inhibitor, single point] | – |
